Measurements from the BET-seq Pho4 binding data (Le et al. 2018).
This is one part of the list. The energies were worked out here from pooled read counts, against the library average; single values are noisy.

Target: T1, Pho4 (S. cerevisiae) (UniProt P07270)
T1 sequence: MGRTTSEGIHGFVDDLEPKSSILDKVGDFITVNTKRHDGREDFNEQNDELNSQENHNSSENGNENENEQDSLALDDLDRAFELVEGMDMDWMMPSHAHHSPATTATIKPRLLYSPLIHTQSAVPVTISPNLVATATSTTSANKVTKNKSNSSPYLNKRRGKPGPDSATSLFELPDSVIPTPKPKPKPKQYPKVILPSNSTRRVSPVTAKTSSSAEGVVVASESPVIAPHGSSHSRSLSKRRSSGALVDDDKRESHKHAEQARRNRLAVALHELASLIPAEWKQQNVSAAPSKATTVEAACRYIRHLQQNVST
Test: relative binding free energy (BET-seq); higher = weaker binding
Conditions: reference: library average

Sequence	relative binding free energy [kcal/mol]
GTTGGCACGTGCGTTC	-0.13
GAGTGCACGTGTTTAA	0.02
TGAGGCACGTGCAGTT	-0.2
CAGGTCACGTGGGTTG	-0.02
TATGGCACGTGACATG	0.01
GGTAACACGTGGTCAG	-0.08
TTTTGCACGTGTTTAG	0.09
TCAGGCACGTGTTAGG	0
GTTGACACGTGATAGG	0.14
TTGCTCACGTGCGTTT	0.05
GTTGCCACGTGTGTGT	0
GGCTGCACGTGGATGC	0.06
GGCTCCACGTGTTTTG	0.23
TCGGTCACGTGATGGC	0.3
TGGGGCACGTGGAGAA	-0.04
CTTTTCACGTGGGTGT	0.21
TGTGGCACGTGCTGAG	-0.23
ATTGGCACGTGTCATG	-0.12
GGGTACACGTGGCTGT	0.01
GCTATCACGTGTGTTG	0.16
CTCGGCACGTGCGGTG	-0.21
AATGTCACGTGGACGG	0.17
TTCTTCACGTGATTGA	0.32

Sequence	relative binding free energy [kcal/mol]
TTGTGCACGTGCTCGT	-0.04
CTGGTCACGTGTGCTG	0.07
TGTGACACGTGTTAAA	0.05
GTTTGCACGTGTGGAT	0.13
TAGCGCACGTGTTTAT	-0.09
AATGGCACGTGGTGAA	-0.1
AGGTCCACGTGGGTTG	-0.13
GCGGTCACGTGGAGGA	0.05
CGCCTCACGTGGGGGG	0.01
GTCTTCACGTGCTATT	0.46
AGGGGCACGTGGAAAA	-0.1
CTATGCACGTGTGATG	-0.04
TATATCACGTGGTTCT	0.01
TAAGGCACGTGATGGT	0.03
TAATGCACGTGTGGCT	0.03
GTATTCACGTGATTAT	0.24
CATGTCACGTGGCTTG	0.21
TGTGTCACGTGTCGAG	0.07
TGGGTCACGTGCTGTG	0.17
TTTGCCACGTGAGGAA	0.2
ATTCTCACGTGCGGGG	0.38
AGAGGCACGTGTATTT	-0.06
TGATGCACGTGTAGAG	0.03

Sequence	relative binding free energy [kcal/mol]
TCGTGCACGTGTGTAG	-0.15
GGTTGCACGTGTGACG	0.08
TAGATCACGTGGAGGT	0.1
TATGTCACGTGAGAGA	0.15
GATTGCACGTGGAGCG	0.07
ATGCGCACGTGGTTGT	-0.12
CGTTACACGTGTGTGA	0.21
TTCGTCACGTGGGGAG	-0.13
TTGTTCACGTGGTGGT	0.26
TGTCGCACGTGTAGGG	-0.03
TTTGTCACGTGCTCTT	-0.04
TGTCGCACGTGAGCTG	0.14
GTCTGCACGTGCATGG	0.05
TTGGACACGTGTGTGG	0.09
GCGGGCACGTGGACGG	-0.12
TGAAACACGTGAATTG	0.3
TAGATCACGTGGGGCA	-0.04
GTGGTCACGTGTTTTC	0.26
AGTGCCACGTGGGGGG	-0.26
TGTATCACGTGGTGTA	0.12
CGCGGCACGTGAGGTG	0.13
TGGAGCACGTGAAGCG	0.15
AATAGCACGTGATGTA	-0.04

Sequence	relative binding free energy [kcal/mol]
GGTGCCACGTGGGAAG	-0.04
TTGAACACGTGTATAG	0
TTTACCACGTGATTAT	0.13
CGATGCACGTGGTGCG	-0.14
TGGGGCACGTGACTTA	0.06
TGATTCACGTGACAGT	0.41
GGGGTCACGTGGAGGC	0.16
TAGCTCACGTGTTAGT	0.3
TTGGTCACGTGGATCT	0.2
CTTGGCACGTGGAGCG	-0.12
GGGGACACGTGTACGT	0.06
TAATTCACGTGAACGG	0.47
GGTCACACGTGTGTAA	0.19
ATTAGCACGTGCAGGT	-0.14
AGTTGCACGTGAATGC	0.33
TTATTCACGTGGGCGC	0.14
TAGGTCACGTGACATG	0.22
GTAATCACGTGGGGTG	-0.03
TAGAGCACGTGAAAGT	0.27
CATTACACGTGGGTAT	-0.11
GCGGTCACGTGCGGGT	0.06
GGATGCACGTGGTCTG	-0.06
TAAATCACGTGATATG	0.2

Sequence	relative binding free energy [kcal/mol]
TATGTCACGTGGAGCA	0.16
CGGGTCACGTGACGGG	0.22
TAGGGCACGTGGCACT	-0.25
TGTAGCACGTGATGCG	0.18
GTATTCACGTGCGGCG	0.2
GGTTCCACGTGGCGGA	0.06
CTGGTCACGTGGTGCG	-0.03
GAATGCACGTGGGAGG	-0.01
CTTTTCACGTGGTAAA	0.15
TTGAACACGTGCTAGT	0
ATCGGCACGTGGAGGT	-0.11
GGGTTCACGTGAGCGA	0.4
TAAAGCACGTGGATAG	-0.04
TGGTGCACGTGTTCGT	-0.04
GAAAGCACGTGGTATT	-0.04
GGTTTCACGTGGGGAG	0.27
ATCAGCACGTGTGTTT	0.06
TAGGTCACGTGTGGCA	0.04
TCTAACACGTGGGGCT	0
GAGTCCACGTGAGTGG	0.25
ATGTGCACGTGAGAAG	0.16
TTGGCCACGTGGGGCG	-0.26
TGTAGCACGTGAGGGC	0.13

Sequence	relative binding free energy [kcal/mol]
GTCGGCACGTGCCGGG	-0.08
AATGGCACGTGAATTG	0.17
ATTAGCACGTGGTTCA	-0.19
GGTTACACGTGTAGGG	0.22
TATACCACGTGTGTGT	-0.14
AAGGGCACGTGTTTGA	-0.14
GGTTTCACGTGTATGT	0.19
TGGGGCACGTGTTGCA	-0.15
TGGTTCACGTGCTTGT	0.31
CTTAGCACGTGGGTTA	-0.2
CAAAGCACGTGTAGGT	0.03
AGAGTCACGTGGTTAG	0.14
ATGCTCACGTGTAGTG	0.17
CGGGGCACGTGGTGTC	-0.11
CTAGGCACGTGGGACG	-0.24
TTCGGCACGTGTTGGT	-0.02
CGGTGCACGTGGTTAT	-0.06
GAGAGCACGTGATGAG	0.28
AGAATCACGTGGGGTA	-0.14
TACTCCACGTGTGGGT	0.05
TTTGCCACGTGTGGGG	-0.01
CACGTCACGTGTTTGG	0.13
GGGGCCACGTGTGGTG	0

Sequence	relative binding free energy [kcal/mol]
TGTTACACGTGTTCAT	0.02
GCGTTCACGTGTGCTG	0.34
ATTGACACGTGGGGTT	-0.12
TATCGCACGTGGGATT	-0.2
AGGCTCACGTGTGGGG	0.2
TCGGACACGTGTGGTG	0.08
TCCGGCACGTGGTGTG	-0.07
TGTTTCACGTGATAAA	0.36
ATACTCACGTGAGGGG	0.26
TGGTTCACGTGAGTCG	0.49
GATTGCACGTGAGTTA	0.33
AGCCTCACGTGTGTGT	0.09
GGGAGCACGTGTACTG	-0.02
GGGGTCACGTGGTCGC	-0.08
TGACGCACGTGCAGGG	-0.03
ATGAACACGTGAGGTG	0.3
ATTTTCACGTGTGTTA	0.33
AAAGGCACGTGCGGGA	-0.14
